Experimental data: paper PMC4336329 (PLoS ONE, 2015)
The campaign covered roughly 310,000 compounds. About 14,000 (4.5%) showed an effect of 50% or more. Effects have a minus sign here. The list shows a part of the results.

biological target: human ether-à-go-go-related gene (hERG) potassium channel (human, UniProt Q12809); test: primary screen, population patch clamp on CHO cells stably expressing hERG
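Note: peak tail current of the secondary pulse compared with the same well before compound.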

Chain of human ether-à-go-go-related gene (hERG) potassium channel (Q12809 whole entry, looked up): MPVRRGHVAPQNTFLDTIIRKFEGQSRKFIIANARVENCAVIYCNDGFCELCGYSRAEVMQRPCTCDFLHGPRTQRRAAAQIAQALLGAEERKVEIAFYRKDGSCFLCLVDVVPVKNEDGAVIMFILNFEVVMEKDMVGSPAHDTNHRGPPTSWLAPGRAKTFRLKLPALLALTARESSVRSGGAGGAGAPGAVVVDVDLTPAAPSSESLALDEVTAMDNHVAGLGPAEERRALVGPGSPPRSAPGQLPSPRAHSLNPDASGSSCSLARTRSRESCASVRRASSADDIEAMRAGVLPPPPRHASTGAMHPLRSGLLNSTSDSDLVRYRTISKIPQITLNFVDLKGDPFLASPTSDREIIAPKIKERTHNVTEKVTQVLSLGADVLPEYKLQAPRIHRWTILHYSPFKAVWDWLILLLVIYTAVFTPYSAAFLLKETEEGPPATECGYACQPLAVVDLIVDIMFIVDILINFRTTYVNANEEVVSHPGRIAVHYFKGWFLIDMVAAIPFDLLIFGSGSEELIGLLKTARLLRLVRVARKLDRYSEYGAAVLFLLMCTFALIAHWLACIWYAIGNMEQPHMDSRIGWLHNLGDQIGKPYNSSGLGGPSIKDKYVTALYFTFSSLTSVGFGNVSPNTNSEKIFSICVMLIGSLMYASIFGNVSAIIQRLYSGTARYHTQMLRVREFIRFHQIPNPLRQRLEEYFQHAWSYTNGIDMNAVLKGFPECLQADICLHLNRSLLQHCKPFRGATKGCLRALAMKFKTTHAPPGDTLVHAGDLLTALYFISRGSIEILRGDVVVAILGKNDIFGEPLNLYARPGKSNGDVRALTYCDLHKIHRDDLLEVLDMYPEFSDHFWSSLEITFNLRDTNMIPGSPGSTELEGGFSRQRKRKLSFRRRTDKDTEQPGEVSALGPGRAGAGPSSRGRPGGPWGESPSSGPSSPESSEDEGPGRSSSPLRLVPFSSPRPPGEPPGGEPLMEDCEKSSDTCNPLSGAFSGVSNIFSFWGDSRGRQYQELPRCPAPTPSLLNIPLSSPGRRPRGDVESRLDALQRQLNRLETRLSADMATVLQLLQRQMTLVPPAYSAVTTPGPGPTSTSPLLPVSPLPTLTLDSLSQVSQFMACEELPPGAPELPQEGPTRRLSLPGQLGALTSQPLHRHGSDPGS

SMILES	hERG current change (%, negative = inhibition) at 10uM [%]
COc1ccc2[nH]c(C(=O)O)c(NS(=O)(=O)c3ccc(C)cc3C)c2c1	10.8
COc1ccc(CCNC(=O)C(CCC(N)=O)NS(=O)(=O)c2ccc(Cl)cc2)cc1OC (centres unmarked)	23.6
CCCCCCCCCC[N+](C)(C)CC/C=C1/c2ccccc2Sc2ccc(Cl)cc21.[Br-]	-76.6
O=C1c2cc([N+](=O)[O-])ccc2-c2ncccc21	-4.54
CCOC(=O)c1ccc(N2CN(CC)CNC2=S)cc1	7.25
COC(=O)c1sc(S(=O)(=O)Nc2ccc(Br)cc2)c(C(=O)OC)c1C	2.75
CC(C)(C)OC(=O)C(C)(C)Sc1nnc(N)s1	5.38
CN(C)S(=O)(=O)c1cccc(NC(=O)CCCc2nc3ccccc3c(=O)[nH]2)c1	4.07
O=C(CNC1CCCCC1)Nc1cc(S(=O)(=O)N2CCOCC2)ccc1Cl	-2.18
O=C(Nc1ccc(F)cc1)c1sccc1SCc1cccc(C(F)(F)F)c1	-5.32
Cc1cc(C)c2cc(CN(CCN3CCCC3)C(=O)Nc3ccc(F)cc3)c(=O)[nH]c2c1	-74.4
c1ccc(C2=Nn3c(nnc3-c3ccncc3)SC2)cc1	-3.67
COc1ccc2c(c1)-c1ccccc1S(=O)(=O)N2C(C)=O	-5.35
CC(=O)c1cc(Cl)ccc1OCc1cccc(S(=O)(=O)N2CCOCC2)c1	-68.9
Cc1cc(Nc2ccccc2)n(C(=O)c2ccc(Cl)cc2)n1	17.4
CCOc1ccc(CSCCNC(=S)Nc2ccc(OC)cc2)cc1	0.191
COc1ccc(Nc2ccc(N3C(=O)CCCC3=O)cc2[N+](=O)[O-])c(OC)c1	-1.83
CCOC(=O)C1CCN(C(=O)CCn2c(=O)c3cccn3c3cccnc32)CC1	-33.2
CN(C)CCSc1nnc2sc3ccccc3n12	-12.1
Cc1cc(C)nc(SCNC(=O)c2ccccc2)n1	7.08
CCCNC(=O)COc1coc(CN2CCN(C(=O)c3ccco3)CC2)cc1=O	3.56

SMILES	hERG current change (%, negative = inhibition) at 10uM [%]
O=C(c1cc(-c2cccc(Br)c2)nc2ccccc12)N1CCCC1	-18.1
N#Cc1cnn2c(N)c(-c3ccc(Cl)cc3)cnc12	16.4
CN(CC(=O)Nc1ccc(F)cc1)C(=O)c1cc(-c2ccco2)nc2ccccc12	-32.5
O=C(CCN1CCN(S(=O)(=O)c2ccc(Cl)cc2)CC1)Nc1ccccc1F	-6.18
O=C(CN1CCN(c2ccccn2)CC1)Nc1ccc(Cl)c(C(F)(F)F)c1	-7.97
Cc1ccc(CNC(=O)c2ccc(N3CCC4(CC3)CC(c3cccc(Br)c3)=NO4)c([N+](=O)[O-])c2)cc1	24.3
CS(=O)(=O)c1cccc(C(=O)OCC(=O)Nc2ccc3c(c2)OCO3)c1	-1.71
CC1CCN(CCCNC(=O)C2CCN(S(=O)(=O)N3CCC4(CC3)OCCO4)CC2)CC1	16.6
OC(COCC(F)(F)C(F)(F)C(F)(F)C(F)F)Cn1c2ccccc2c2ccccc21 (centres unmarked)	-14.4
CN(C)C(=O)C(=O)c1c(-c2ccccc2)cc2ccccn12	4.87
Cc1cccc2cc3c(N)c(C#N)sc3nc12	21.5
O=C(O)CCC(=O)NNC(=O)c1cccc(Cl)c1	8.99
CCC1=C(OC(=O)N(CC)CC)N2C(=O)OC(=NCc3ccccc3)[C@]2(C)[C@H]2C1=CC[C@H]1C(=O)N(c3ccccc3)C(=O)[C@H]12	-34.3
COc1ccc(-c2cn3cccnc3n2)cc1NC(=O)CC(C)C	6.53
C=CCn1c(SCC(=O)Nc2ncc(Cc3ccc(C)c(Cl)c3)s2)nnc1-c1ccncc1	-1.27
CCN(C(=O)COC(=O)Cn1c(C)csc1=O)c1c(N)n(Cc2ccccc2)c(=O)[nH]c1=O	-2.69
COc1ccc(N(CC(=O)N2CCN(C)CC2)S(=O)(=O)c2cc(C)ccc2OC)cc1Cl	-60.3
Cc1ccc(NC(=S)NCc2ccccc2)cc1C	11
CCCCn1c(SCC(=O)Nc2cc(C(F)(F)F)ccc2Cl)nnc1C(CC)N(C)C (centres unmarked)	-19.1
COc1ccc(S(=O)(=O)NCCC(=O)Nc2ccc(C)cc2)cc1	0.527
O=S1(=O)C[C@@H](O)[C@@H](Nc2ccc(Cl)cc2)C1	7.07

SMILES	hERG current change (%, negative = inhibition) at 10uM [%]
CC(C)(C)N(Cc1ccccc1)C(=O)COC(=O)/C=C/c1ccc2c(c1)OCO2	-7.85
CCC(C)C(=O)N[C@@H](c1ccccc1)[C@@H](O)C(=O)O[C@H]1C[C@@]2(O)[C@@H](OC(=O)c3ccccc3)C3[C@](C)(C(=O)[C@H](OC(C)=O)C(=C1C)C2(C)C)[C@@H](O)C[C@H]1OC[C@@]31OC(C)=O (some centres unmarked)	1.3
C=CCc1ccc(OC(=O)c2ccccc2)c(OC)c1	5.73
O=C(c1ccco1)N1CCN(c2cc(C(F)(F)F)nc3ncnn23)CC1	-16.7
COc1ccc(C(CNC(=O)c2ccc(-c3cccc(C(F)(F)F)c3)o2)N2CCOCC2)cc1 (centres unmarked)	-6.09
CC1(C(=O)NCCc2c[nH]c3ccccc23)C=CC2(CCCCC2)N1C(=O)c1ccccc1 (centres unmarked)	-9.82
COc1ccc(NC(=O)c2ccc(S(=O)(=O)N3CCCCC3)cc2)c(OC)c1	-2.09
N#CC(c1ccc(Cl)nn1)c1ccccc1Cl (centres unmarked)	-1.26
COC(=O)C1(C)NC(c2ccccc2C)C2C(=O)N(c3ccc(F)cc3)C(=O)C21 (centres unmarked)	1.12
COc1ccc(S(=O)(=O)N2CCC(C(=O)Nc3ccccc3N3CCCC3)CC2)cc1OC	-23.7
O=C(COc1ccccc1)Nc1ccccc1Oc1ccccc1	-8.35
CC(=O)Nc1ccc(C(=O)OCC(=O)N2CCC(Cc3ccccc3)CC2)cc1	0.85
Cc1ccc(COc2cccc(/C=N/NC(=O)c3nnn(-c4nonc4N)c3C)c2)cc1	23.7
Cc1cc(C)c(S(=O)(=O)N(C)CC(N)=O)c(C)c1	-4.51
Cc1ccccc1NC(=O)c1cccc(S(=O)(=O)Nc2cccc(C(=O)O)c2)c1	21.2
O=C(NCCc1c[nH]c2ccccc12)C1CCN(S(=O)(=O)c2ccccc2F)CC1	-2.01
Cc1cc(-c2n[nH]c(=S)n2/N=C/c2ccc(C)s2)n[nH]1	13.4
O=[N+]([O-])c1ccc(/C=N/n2c(-c3ccccc3)n[nH]c2=S)cc1	11.3
CN(C)S(=O)(=O)c1cccc(-c2nn(-c3ccccc3)cc2/C=C2\SC(=S)N(CC(=O)O)C2=O)c1	7.46
Cc1ccnc(NC(=O)c2cccc(NC(=O)COc3ccccc3)c2)c1	-38.3
Cc1cc(C)c(S(=O)(=O)NCc2cccnc2)cc1C	13.4

SMILES	hERG current change (%, negative = inhibition) at 10uM [%]
CC(=O)Nc1ccc(Nc2cc(N(C)C)c3nonc3c2[N+](=O)[O-])cc1	10.6
Cc1nc2ccccn2c1C(=O)Nc1ccc(Cl)cc1	1.65
COc1cc(C2C(C#N)=C(N)Oc3n[nH]c(C)c32)cc2c1OCO2 (centres unmarked)	-3.43
O=C(CN1CC(c2ccccc2)CC1=O)Nc1ccccc1 (centres unmarked)	5.88
O=C(CSc1nnc(-c2ccccc2O)n1-c1ccccc1)Nc1cccc(C(=O)O)c1	12.7
CCn1ncc(C2=NOC(C(=O)N3CCN(c4ccccc4)CC3)C2)c1C (centres unmarked)	-16.4
CS(=O)(=O)Cc1ccc(C(=O)NC(c2ccccc2)c2ccccc2)cc1	13.2
Cc1cc(C)cc(NC(=O)CS(=O)(=O)c2cccc3nsnc23)c1	3.39
CCCCCOc1ccc(CSc2ncn[nH]2)cc1	-17.4
Cl.c1ccc(CNc2c3c(nc4ccccc24)CCC3)cc1	-75.3
Cc1ccc(OC(=O)c2ccncc2)c(C)c1	7.55
COc1ccc(C(=O)NNC(=S)NC(=O)c2ccc(Br)o2)cc1OC	24.8
CC(C)CC1NC(=O)N(CC(=O)N2c3ccccc3NC(=O)C2(C)C)C1=O (centres unmarked)	1.31
CC(=O)N[C@@H](Cc1c[nH]c2ccccc12)C(=O)NC1CC1	21.1
O=C(CCNC(=O)C1CCN(S(=O)(=O)c2ccc(F)cc2)CC1)NCCc1cccc(F)c1	11.8
COc1cccc(NC(=O)Cn2c(=O)n(C)c(=O)c3sc4c(c32)COC(C)(C)C4)c1	6.82
CCCCNC(=O)c1cc2c(=O)n3cccc(C)c3nc2n(Cc2ccccc2)c1=N	-77.6
C=CCn1c(C)cc(C(=O)Cn2ncc(Cl)c(Cl)c2=O)c1C	-16.6
COc1ccc(-c2csc(Nc3cccc(C)n3)n2)cc1C	5.87
O=C(C1CCCO1)N1CCN(C(=S)Nc2ccc(Br)cc2)CC1 (centres unmarked)	-13.3
